Residue numbers refer to the chain shown, from its start. Names may count otherwise. ± gives the standard deviation of the averaged measurements. Laboratory Escherichia coli strains with one amino-acid change in an essential protein, pooled on minimal glucose agar with carbenicillin or gentamicin at twice the control MIC (plus kanamycin and chloramphenicol for the plasmids), 48 h. Fold change of barcode share against drug-free plates; higher = less susceptible. Active = above 20 in both replicates (the paper's putatively resistant). '<' = one read or none on drug, '>' = one read or none on a drug-free plate. Shares are relative, so most strains fall below 1 when a few take over. Listed are strains with at least 15 reads on both drug-free plates, and hits; most hits rest on fewer reference reads. Replicate rank correlation about 0.5. Edits are read from barcodes.

B1: metL M137A (protein)
chain: MSVIAQAGAKGRQLHKFGGSSLADVKCYLRVAGIMAEYSQPDDMMVVSAAGSTTNQLINWLKLSQTDRLSAHQVQQTLRRYQCDLISGLLPAEEADSLISAFVSDLERLAALLDSGINDAVYAEVVGHGEVWSARLASAVLNQQGLPAAWLDAREFLRAERAAQPQVDEGLSYPLLQQLLVQHPGKRLVVTGFISRNNAGETVLLGRNGSDYSATQIGALAGVSRVTIWSDVAGVYSADPRKVKDACLLPLLRLDEASELARLAAPVLHARTLQPVSGSEIDLQLRCSYTPDQGSTRIERVLASGTGARIVTSHDDVCLIEFQVPASQDFKLAHKEIDQILKRAQVRPLAVGVHNDRQLLQFCYTSEVADSALKILDEAGLPGELRLRQGLALVAMVGAGVTRNPLHCHRFWQQLKGQPVEFTWQSDDGISLVAVLRTGPTESLIQGLHQSVFRAEKRIGLVLFGKGNIGSRWLELFAREQSTLSARTGFEFVLAGVVDSRRSLLSYDGLDASRALAFFNDEAVEQDEESLFLWMRAHPYDDLVVLDVTASQQLADQYLDFASHGFHVISANKLAGASDSNKYRQIHDAFEKTGRHWLYNATVGAGLPINHTVRDLIDSGDTILSISGIFSGTLSWLFLQFDGSVPFTELVDQAWQQGLTEPDPRDDLSGKDVMRKLVILAREAGYNIEPDQVRVESLVPAHCEGGSIDHFFENGDELNEQMVQRLEAAREMGLVLRYVARFDANGKARVGVEAVREDHPLASLLPCDNVFAIESRWYRDNPLVIRGPGAGRDVTAGAIQSDINRLAQLL
B2: metL M137W (protein)
chain: B1 chain with A137W
B3: metL M137D (protein)
chain: B1 chain with A137D
B4: metL M137Q (protein)
chain: B1 chain with A137Q

One data set deals with Escherichia coli (laboratory strain). The experiment in a line: barcode share on antibiotic plates over drug-free plates; higher = less susceptible. The conditions noted are these: antibiotic: carbenicillin; 2× MIC (3.1 µg/mL). As for the experimental part: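 A pool of E. coli strains, each edited to carry one amino-acid change in an essential protein, was grown for 48 h on minimal glucose agar with or without antibiotic; strain barcodes were sequenced; mean of two replicates.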
Take B1: the “fold change of barcode share” value turned out to be 0.816 ± 0.23.
Same read-out and setting: then B2, with 0.69 ± 0.08; and B3, with 0.7895 ± 0.0033; and B4, with 0.697 ± 0.2.

The data set is the same for the next values; noted with them: antibiotic: gentamicin; 2× MIC (MIC 0.45 µg/mL).
In the case of B1, the “fold change of barcode share” value came out at 0.0132 ± 0.013.
For B2, the “fold change of barcode share” value came out at 0.00559 ± 0.0017.
On to B3, for which the “fold change of barcode share” value turned out to be 0.008254 ± 6.9e-05.
For the protein B4, the “fold change of barcode share” value worked out at 0.00899 ± 0.0056.

These data come from the supplement of paper PMC11876631.
